For one test, the system named is RXF 393 renal. Briefly: NCI-60 one-dose screen, 48 h (100 = growth as untreated, 0 = no growth, -100 = all killed). As to conditions: 25 µM.
A further test concerns SF-268 CNS. The description is as above. Conditions: 0.25 µM.

Where a structure was tested more than once in an assay, its records may differ in their call.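 Results are percent growth after 48 hours of single-concentration exposure. 100 means growth as in untreated cells, lower positive values show inhibition; negative values down to -100 show cell death.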 For part of its entries the source gives two or more results. The other results are left out here. The source may hold further records. For part of these data: This drug was run again and again over the years, at the concentration stated with the values; one value stands for one run. Marks such as (2×) give the number of equal values in this list. Entries with a single value are a further part of the results. Active and inactive are the calls of the source. How the source made its calls: active means growth percent below 10; inactive means the rest.

Take `COc1cccc2c1C(=O)c1c(O)c3c(c(O)c1C2=O)C[C@@](O)(C(=O)CO)C[C@@H]3OC1CC(N)C(O)C(C)O1` (stereo not given in full): the growth entry was “active: -83, -67.5, -86.1, -75.3, -63.5, -71.4, -70.2 (2×), -64.1, -73, -76.8, -87.3, -70.8, -91.2, -82.7, -84.8, -64.9, -60.4, -73.8, -87%” in the test on RXF 393 renal (runs of 1998); “active: -89.6, -69.6, -80.3, -85.4, -86.7, -81.1, -95.5, -72.9, -87.7, -72.4, -93.7, -93.6, 2.84, -29.6, -76.9, -100, -79.4, -87.1%” in the test with RXF 393 renal (runs of 1999); “active: -36.3, -100, -18.5, -66.6%” with RXF 393 renal (runs of 2000); inactive: 28.9% with SF-268 CNS (runs of 2006); “inactive: 34.9, 25, 10.7, 29.1, 23.6, 32.5, 30.4, 38.5, 33.8 (2×), 27.5, 26.8, 27.3, 39, 15, 14.8, 27.9, 26.3, 29.7, 15.6, 33.4, 24.7, 37.1, 46.4, 30.9, 39.4, 33.7, 27.2, 25.6, 21.2, 32.1, 30.2, 35.1, 43.9, 48.6, 21.7, 27.6, 23.3, 31.7, 32.6, 29.8, 36.9, 34.7% and active: 9.82%” with SF-268 CNS (runs of 2007); “inactive: 31.5, 24.4 (2×), 27.6, 28.4 (2×), 31.7, 37.7, 26.2 (3×), 33.8, 36.7, 39, 35.4, 33.9, 29.4, 16.8, 37.9, 30.6, 29, 12.8, 21, 23.5, 27.9, 15, 18.2, 96.5, 36.8, 20, 23.7, 28.9, 12.5, 18.8, 19.3, 18.4, 18, 18.7, 18.5, 35.1, 34.5, 31.8, 40.3, 34, 41.6, 25.6, 26, 25.1, 37.6, 22.2, 26.7% and active: -8.76%, 0.96%, 9.88%” in the test on SF-268 CNS (runs of 2008). Besides, the growth entry is “inactive: 25.5, 24.6, 24.8 (2×), 29, 27.9, 25.4, 28.8, 31.4, 27.8 (2×), 35.8, 33.2 (3×), 27.7, 23.8, 30, 28.3, 35.9, 32.1 (2×), 33.5, 27.5, 20.1, 28.6 (2×), 23.7, 24.3, 26.7 (2×), 23.9, 42.9, 19.8, 11.2, 19, 18.1, 34.5, 29.6, 12.2, 14.9, 42.4, 36.6, 34.7, 27, 30.8, 21.5, 35.6, 55.4, 19.1, 41.8, 39.8, 54, 34.4, 36.7, 34, 34.3, 36.8, 37.3% and active: 8.68%, 5.96%” in the test on SF-268 CNS (runs of 2009); “inactive: 45.1, 39.7, 27.8, 37 (2×), 30.3, 33.4 (2×), 43.4, 45, 43.6, 42.2, 32.5, 30.6 (2×), 32.2, 32.3 (2×), 40.3, 18.5, 30 (2×), 36.1, 23.9 (2×), 36.9, 27, 36, 30.9, 28.6, 28.1, 31.3, 20.6, 39.1, 23.8, 33.7, 25, 34.8, 23.2, 35.7, 29.7, 30.8, 35.2, 39.6, 33.5, 29.6, 32.9, 38.7, 34.3%” with SF-268 CNS (runs of 2010); “inactive: 30.3, 30.6, 32.6, 33.2 (3×), 40.3, 37.6 (3×), 35.4 (3×), 28.4 (2×), 33.7, 29.7, 33.6, 35.5, 34.8, 28.8, 40, 41.2, 39.6, 38.8, 35.9, 38.5, 41.9, 35.7, 36.8 (2×), 46.6, 35.8 (2×), 30, 37.5, 33.4, 34.9, 33.5, 32, 27.8, 36, 31.8, 33.3 (2×), 32.2, 30.5, 22.7, 42.5, 27.2, 42.2, 42, 35.1, 40.6, 41.5%” with SF-268 CNS (runs of 2011); “inactive: 39.8 (2×), 33.2 (2×), 28.1, 34.9, 30.4 (2×), 43.4, 45.5, 31.5, 35.5 (2×), 36.4, 27.9, 30.9, 30.6, 29.6, 32 (2×), 26.5, 29.8, 34.5, 37.5, 38.7, 35.6 (2×), 36.8, 39.4, 38.9, 33.4, 37.9, 37.8 (2×), 48.1, 35.4, 21.6, 42.3, 20.9, 32.3, 28.6, 36.6 (2×), 38.2, 45.6, 42.5, 46.4, 51.6, 44, 43.3, 45.3, 55.5, 47.9, 51.9, 49.7, 31, 37.4, 31.4 (3×), 29.5, 22.7, 36.9 (2×), 25.6, 27.3, 24%” with SF-268 CNS (runs of 2012); “inactive: 33.1 (2×), 25.4 (2×), 32 (2×), 37.5, 33.4 (3×), 34.7 (3×), 35.7 (2×), 28.3 (2×), 42.2, 36.4, 35.2, 33.7, 27 (2×), 34.5, 25.3, 33.8, 39, 33.9, 23.9, 34.6 (2×), 23.1, 36 (2×), 26.1, 41.6, 35.9, 27.7, 41.7, 38.5 (2×), 29.6 (2×), 35.5, 42.9, 36.3, 34.2, 43, 36.8, 31.8 (2×), 35.1 (2×), 28.8, 41.4, 30.3, 24.8, 37.3, 29.7 (2×), 37, 30.9, 38.8 (2×), 42.5, 28.9 (2×), 23.2, 15.5, 22.7, 28.6, 32.9, 26.2, 28.1, 38.3%” in the test with SF-268 CNS (runs of 2013); “inactive: 33 (2×), 32 (2×), 31.2, 28.7 (2×), 29.6 (2×), 20.8, 30.3, 27.2, 24.1, 28.4, 31 (4×), 32.5, 41.2 (2×), 26.8 (2×), 19.2, 36.7, 32.7 (2×), 32.2 (2×), 38.8, 36.1 (2×), 41 (2×), 46.4, 37.1, 36.6, 36.9 (2×), 37.7, 34.6, 33.5, 34.2, 37.3 (3×), 36, 34.8, 28.6, 28.1 (2×), 28.3, 30.6, 28.9, 27.7, 32.1, 31.5, 29.7, 29.8, 27.6, 30.7, 26.3, 37.4, 27.5, 28.8, 38.5, 34.4, 36.4 (2×), 32.6, 31.7, 29.4, 30.9%” in the test on SF-268 CNS (runs of 2014). Moreover, the growth result was “inactive: 33.6, 32.1 (2×), 26.8 (2×), 31.2 (3×), 27.3, 33.4 (2×), 34.9, 37.1 (2×), 35.6, 36.8, 35.2, 38.5, 41.6, 30.6 (2×), 27.6 (2×), 26.4, 27.5, 30.8, 36.6 (2×), 46.5, 32.5 (3×), 28.6 (2×), 32, 30, 30.9, 28.3, 32.9, 37.7, 35.7, 32.7 (2×), 34.6 (2×), 31.3, 28.9, 26.3, 28.4, 22.5, 26.1, 41.9, 30.3, 29.1, 31.8, 39.1, 39.4, 38.8, 40.1, 39.5, 36.1 (2×), 40.7, 44, 33, 30.7, 35.9, 32.6, 33.1, 33.3, 38.6, 42.5%” in the test with SF-268 CNS (runs of 2015); “inactive: 33.3 (3×), 33.5, 32.3 (4×), 40.8 (2×), 34.9 (2×), 32.9, 33.4, 30.8, 36.1, 36.5, 26.2, 30.4 (2×), 28.4 (2×), 25.3, 23.4, 30.9, 35.9 (2×), 32, 24.1, 32.7, 27.2, 29.1 (2×), 29, 29.4, 31.8, 36.4 (2×), 34, 40.3, 34.5, 39.5 (2×), 33.2, 34.2, 37.1, 42, 41.1 (2×), 37.6, 31.4, 38.8, 43.2, 41, 39.8, 40.7, 37.4, 38.9 (4×), 44.9, 34.7, 41.4, 37.5, 43.5, 55.5, 55.2, 45.6, 44.4, 49.1, 45.5, 45, 38.3, 36, 33.1, 40.1, 37.9, 42.9, 43, 39.6%” in the test with SF-268 CNS (runs of 2016); “inactive: 37.4, 36.6, 38.3, 31, 29.4, 27.2 (2×), 33.4, 32.9, 24.8 (2×), 26.2, 24.6, 24.7, 26.3 (2×), 29.1 (2×), 32.2, 33.8, 27.9 (2×), 30 (3×), 28.1, 26.5, 34.6, 28.7, 28.9, 33.2, 34.7, 31.3 (2×), 31.4 (2×), 35.1, 32.3 (2×), 33.3, 33.5, 37.3, 29.8 (3×), 31.7, 25.1, 27.8, 29.3, 29, 27.1, 26.4 (2×), 33, 25.2, 36, 35.9, 28.6, 32 (2×), 30.2, 34.8, 30.5, 34.2 (2×), 36.5, 27.6, 27.5, 31.5, 31.2, 30.9, 34%” in the test on SF-268 CNS (runs of 2017).

Values taken from PubChem BioAssay (NCI).
